{
  "source": "patent US20150017651",
  "target": "Gli1 (wild-type, full-length) (UniProt P08151)",
  "sequence (P08151 whole entry)": "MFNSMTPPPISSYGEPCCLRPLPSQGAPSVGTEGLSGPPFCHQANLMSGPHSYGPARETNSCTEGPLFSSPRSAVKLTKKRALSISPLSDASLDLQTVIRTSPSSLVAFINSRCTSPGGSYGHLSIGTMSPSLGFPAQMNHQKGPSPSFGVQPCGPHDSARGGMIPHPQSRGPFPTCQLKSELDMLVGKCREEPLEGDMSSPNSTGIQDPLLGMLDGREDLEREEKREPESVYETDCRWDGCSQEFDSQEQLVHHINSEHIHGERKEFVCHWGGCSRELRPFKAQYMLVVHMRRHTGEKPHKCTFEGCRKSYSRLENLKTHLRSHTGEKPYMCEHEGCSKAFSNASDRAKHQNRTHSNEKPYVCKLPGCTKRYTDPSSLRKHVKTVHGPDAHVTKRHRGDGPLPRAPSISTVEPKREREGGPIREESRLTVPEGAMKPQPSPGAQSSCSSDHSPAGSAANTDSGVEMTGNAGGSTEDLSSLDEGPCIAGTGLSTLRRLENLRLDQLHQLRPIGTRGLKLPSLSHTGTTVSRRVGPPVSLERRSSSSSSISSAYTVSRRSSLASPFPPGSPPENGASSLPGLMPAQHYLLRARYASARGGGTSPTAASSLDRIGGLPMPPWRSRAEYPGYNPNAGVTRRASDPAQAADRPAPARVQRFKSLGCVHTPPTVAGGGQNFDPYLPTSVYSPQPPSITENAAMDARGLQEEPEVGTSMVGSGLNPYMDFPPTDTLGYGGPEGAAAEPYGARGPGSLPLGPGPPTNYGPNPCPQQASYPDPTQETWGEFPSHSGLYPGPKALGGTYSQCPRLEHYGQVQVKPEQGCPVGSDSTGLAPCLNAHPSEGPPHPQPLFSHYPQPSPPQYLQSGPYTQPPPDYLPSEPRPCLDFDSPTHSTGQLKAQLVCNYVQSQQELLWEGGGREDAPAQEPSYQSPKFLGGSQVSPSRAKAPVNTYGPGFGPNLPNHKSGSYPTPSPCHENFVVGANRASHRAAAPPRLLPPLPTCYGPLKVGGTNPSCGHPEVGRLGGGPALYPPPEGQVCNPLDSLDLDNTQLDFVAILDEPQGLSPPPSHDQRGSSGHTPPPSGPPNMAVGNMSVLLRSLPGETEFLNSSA",
  "data": [
    {"substance": "HA-tagged loss-of-function S6K1T389A (no sequence given)", "values": [
      {"measurement": "serine/threonine phosphorylation of immunoprecipitated endogenous Gli1 (Western blot)", "result": "serine/threonine phosphorylation of Gli1 was observed with the ectopic expression of S6K1 or S6K1T389E (FIG. 3A), but neither S6K1T389A nor S6K1K100R"}
    ]}
  ]
}
